Data on two molecules can be found in PMC10470960.

Results are given in words; binding and its absence hold for the method and conditions named. Some entries that bind do so weakly or less than the wild type. Sequences can lack the tags named with a protein.

Assay [1] addresses T1, Kar4p A310Stop fused to the Gal4p DNA-binding domain (S. cerevisiae) (UniProt P25583).
T1 sequence: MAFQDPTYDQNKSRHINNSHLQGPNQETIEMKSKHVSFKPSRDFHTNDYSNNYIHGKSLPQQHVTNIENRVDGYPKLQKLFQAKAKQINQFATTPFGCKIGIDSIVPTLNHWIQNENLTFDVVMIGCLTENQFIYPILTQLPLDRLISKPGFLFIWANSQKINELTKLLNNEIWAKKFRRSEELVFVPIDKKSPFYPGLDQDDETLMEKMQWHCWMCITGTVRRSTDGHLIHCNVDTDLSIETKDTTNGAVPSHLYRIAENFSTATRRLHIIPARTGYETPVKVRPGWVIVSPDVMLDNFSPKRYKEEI
As to the kind of experiment: two-hybrid; one-hybrid assay: Kar4p-Gal4 DNA-binding domain recruits endogenous Ste12p to drive the HIS3 reporter in PJ69-4A; 10-fold serial dilutions on SC-HIS with 3 uM alpha-factor, 30 degrees; graded ++++ to -.

The target of assay [2] is T2, Kar4p P273L fused to the Gal4p DNA-binding domain (S. cerevisiae) (UniProt P25583).
T2 sequence: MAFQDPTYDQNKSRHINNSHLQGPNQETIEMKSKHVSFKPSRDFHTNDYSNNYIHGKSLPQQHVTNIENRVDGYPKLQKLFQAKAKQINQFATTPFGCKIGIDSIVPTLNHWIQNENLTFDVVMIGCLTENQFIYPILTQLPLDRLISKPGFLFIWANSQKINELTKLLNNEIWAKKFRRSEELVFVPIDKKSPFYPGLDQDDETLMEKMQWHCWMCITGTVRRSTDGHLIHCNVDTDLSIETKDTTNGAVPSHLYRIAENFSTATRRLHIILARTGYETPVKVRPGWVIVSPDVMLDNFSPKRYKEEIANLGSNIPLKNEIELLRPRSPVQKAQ
The assay is described as above.

Assay [3] concerns the target T3, Kar4p W212R fused to the Gal4p DNA-binding domain (S. cerevisiae) (UniProt P25583).
T3 sequence: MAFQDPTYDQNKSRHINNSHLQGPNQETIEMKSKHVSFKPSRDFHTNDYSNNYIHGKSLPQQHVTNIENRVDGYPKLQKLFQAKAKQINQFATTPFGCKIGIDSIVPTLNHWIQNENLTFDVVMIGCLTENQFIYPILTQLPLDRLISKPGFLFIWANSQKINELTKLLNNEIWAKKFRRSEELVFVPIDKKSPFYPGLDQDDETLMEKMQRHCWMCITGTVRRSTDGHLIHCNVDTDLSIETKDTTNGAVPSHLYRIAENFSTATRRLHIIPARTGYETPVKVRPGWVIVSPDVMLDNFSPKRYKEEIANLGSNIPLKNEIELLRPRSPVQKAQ
The description is as above.

Assay [4] concerns the target T4, Kar4p M207R fused to the Gal4p DNA-binding domain (S. cerevisiae) (UniProt P25583).
T4 sequence: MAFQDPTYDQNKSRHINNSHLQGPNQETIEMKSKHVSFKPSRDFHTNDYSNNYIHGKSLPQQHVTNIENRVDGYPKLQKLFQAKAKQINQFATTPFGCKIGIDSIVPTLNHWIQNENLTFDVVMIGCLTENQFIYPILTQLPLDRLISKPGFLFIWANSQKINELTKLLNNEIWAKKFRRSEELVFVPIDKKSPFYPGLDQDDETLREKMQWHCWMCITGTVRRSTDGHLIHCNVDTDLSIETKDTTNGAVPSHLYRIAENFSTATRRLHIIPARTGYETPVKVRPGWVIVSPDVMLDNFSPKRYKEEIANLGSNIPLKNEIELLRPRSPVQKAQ
As to the kind of experiment: two-hybrid; KAR4-GBD alleles with IME4-GAD in PJ69-4 diploids; 24 hours in meiosis-inducing conditions, then 10-fold serial dilutions on SC-HIS and SC-ADE (HIS3 and ADE2 reporters); graded ++++ to -.

The target in assay [5] is T5, Kar4p W156G fused to the Gal4p DNA-binding domain (S. cerevisiae) (UniProt P25583).
T5 sequence: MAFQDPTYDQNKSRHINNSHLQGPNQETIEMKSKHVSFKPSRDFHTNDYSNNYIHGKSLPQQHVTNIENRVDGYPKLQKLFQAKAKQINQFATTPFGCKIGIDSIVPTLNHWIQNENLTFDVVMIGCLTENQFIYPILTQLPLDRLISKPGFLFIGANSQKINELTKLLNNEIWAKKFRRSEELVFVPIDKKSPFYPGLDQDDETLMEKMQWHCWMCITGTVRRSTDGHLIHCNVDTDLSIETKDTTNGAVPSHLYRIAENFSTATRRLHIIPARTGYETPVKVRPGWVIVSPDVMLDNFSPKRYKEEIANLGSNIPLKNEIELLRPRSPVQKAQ
The description is as above.

Assay [6] addresses T3, Kar4p W212R fused to the Gal4p DNA-binding domain (S. cerevisiae). The assay is described as above.
In assay [7] the target is T6, Kar4p ΔP281V282 fused to the Gal4p DNA-binding domain (S. cerevisiae) (UniProt P25583).
T6 sequence: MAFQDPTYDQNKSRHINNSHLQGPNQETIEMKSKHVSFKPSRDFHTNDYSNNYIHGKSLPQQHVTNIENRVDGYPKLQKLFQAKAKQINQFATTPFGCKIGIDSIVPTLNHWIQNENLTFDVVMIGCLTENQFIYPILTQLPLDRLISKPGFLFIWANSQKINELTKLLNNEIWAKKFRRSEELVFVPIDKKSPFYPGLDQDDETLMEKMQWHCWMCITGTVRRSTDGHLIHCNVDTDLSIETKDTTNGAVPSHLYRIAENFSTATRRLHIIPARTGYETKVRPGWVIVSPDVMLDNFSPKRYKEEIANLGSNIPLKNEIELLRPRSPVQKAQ
The description is as above.

B1: Ste12p (protein, UniProt P13574 1-688)
chain: MKVQITNSRTEEILKVQANNENDEVSKATPGEVEESLRLIGDLKFFLATAPVNWQENQIIRRYYLNSGQGFVSCVFWNNLYYITGTDIVKCCLYRMQKFGREVVQKKKFEEGIFSDLRNLKCGIDATLEQPKSEFLSFLFRNMCLKTQKKQKVFFWFSVAHDKLFADALERDLKRESLNQPSTTKPVNEPALSFSYDSSSDKPLYDQLLQHLDSRRPSSTTKSDNSPPKLESENFKDNELVTVTNQPLLGVGLMDDDAPESPSQINDFIPQKLIIEPNTLELNGLTEETPHDLPKNTAKGRDEEDFPLDYFPVSVEYPTEENAFDPFPPQAFTPAAPSMPISYDNVNERDSMPVNSLLNRYPYQLSVAPTFPVPPSSSRQHFMTNRDFYSSNNNKEKLVSPSDPTSYMKYDEPVMDFDESRPNENCTNAKSHNSGQQTKQHQLYSNNFQQSYPNGMVPGYYPKMPYNPMGGDPLLDQAFYGADDFFFPPEGCDNNMLYPQTATSWNVLPPQAMQPAPTYVGRPYTPNYRSTPGSAMFPYMQSSNSMQWNTAVSPYSSRAPSTTAKNYPPSTFYSQNINQYPRRRTVGMKSSQGNVPTGNKQSVGKSAKISKPLHIKTSAYQKQYKINLETKARPSAGDEDSAHPDKNKEISMPTPDSNTLVVQSEEGGAHSLEVDTNRRSDKNLPDAT
Regarding B1, the binding entry in assay [1] is listed as “binds”; in assay [2], “no binding”; in assay [3] it was “binds”.

B2: Ime4p fused to the Gal4p activating domain (protein, UniProt P41833 1-600)
chain: MINDKLVHFLIQNYDDILRAPLSGQLKDVYSLYISGGYDDEMQKLRNDKDEVLQFEQFWNDLQDIIFATPQSIQFDQNLLVADRPEKIVYLDVFSLKILYNKFHAFYYTLKSSSSSCEEKVSSLTTKPEADSEKDQLLGRLLGVLNWDVNVSNQGLPREQLSNRLQNLLREKPSSFQLAKERAKYTTEVIEYIPICSDYSHASLLSTSVYIVNNKIVSLQWSKISACQENHPGLIECIQSKIHFIPNIKPQTDISLGDCSYLDTCHKLNTCRYIHYLQYIPSCLQERADRETASENKRIRSNVSIPFYTLGNCSAHCIKKALPAQWIRCDVRKFDFRVLGKFSVVIADPAWNIHMNLPYGTCNDIELLGLPLHELQDEGIIFLWVTGRAIELGKESLNNWGYNVINEVSWIKTNQLGRTIVTGRTGHWLNHSKEHLLVGLKGNPKWINKHIDVDLIVSMTRETSRKPDELYGIAERLAGTHARKLEIFGRDHNTRPGWFTIGNQLTGNCIYEMDVERKYQEFMKSKTGTSHTGTKKIDKKQPSKLQQQHQQQYWNNMDMGSGKYYAEAKQNPMNQKHTPFESKQQQKQQFQTLNNLYFAQ
In the case of B2, the binding entry is “binds” in assay [4], “no binding” in assay [5], “binds” in assay [6] and “no binding” in assay [7].
